Laboratory results published in PubChem BioAssay AID596 (National Center for Advancing Translational Sciences (NCATS), 2007).
Out of some 71,000 compounds screened, about 1,400 (2%) were called active. Inconclusive means that the source gave no clear call. Such entries were picked first, then a sample of the others. The call rests on the fitted dose curve; in most records, active means well fitted curve in the direction sought with a large enough effect; inconclusive means small, poorly fitted or top-dose-only effect; inactive means no such curve, though single readings can be large or run the other way. A potency beside an inconclusive call is a rough fit, not a confirmed value. Some compounds were tested as several samples or in several runs, with calls that do not always agree.

These compounds were tested against Microtubule-associated protein tau (Homo sapiens) (UniProt P10636) (assay: qHTS Assay for Tau Filament Binding). Conditions: recombinant tau filaments, thioflavin S fluorescence, 15 h; series mostly up to 57.1 µM.
Method in brief: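 Recombinant tau protein (human, 1 uM final) plus 30 uM ODS in HEPES pH 7.4 with NaCl, DTT and thioflavine S. Compound present from the start; fluorescence at 510 nm after 15 h, 37 C.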
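Further: actives lower thioflavin S fluorescence by blocking filaments or displacing dye.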
On the % scale 0 is the no-effect control and ±100 the full control effect; potency means the concentration at half of the fitted maximal effect.

Sequence of UniProt P10636 (P10636 whole entry, looked up): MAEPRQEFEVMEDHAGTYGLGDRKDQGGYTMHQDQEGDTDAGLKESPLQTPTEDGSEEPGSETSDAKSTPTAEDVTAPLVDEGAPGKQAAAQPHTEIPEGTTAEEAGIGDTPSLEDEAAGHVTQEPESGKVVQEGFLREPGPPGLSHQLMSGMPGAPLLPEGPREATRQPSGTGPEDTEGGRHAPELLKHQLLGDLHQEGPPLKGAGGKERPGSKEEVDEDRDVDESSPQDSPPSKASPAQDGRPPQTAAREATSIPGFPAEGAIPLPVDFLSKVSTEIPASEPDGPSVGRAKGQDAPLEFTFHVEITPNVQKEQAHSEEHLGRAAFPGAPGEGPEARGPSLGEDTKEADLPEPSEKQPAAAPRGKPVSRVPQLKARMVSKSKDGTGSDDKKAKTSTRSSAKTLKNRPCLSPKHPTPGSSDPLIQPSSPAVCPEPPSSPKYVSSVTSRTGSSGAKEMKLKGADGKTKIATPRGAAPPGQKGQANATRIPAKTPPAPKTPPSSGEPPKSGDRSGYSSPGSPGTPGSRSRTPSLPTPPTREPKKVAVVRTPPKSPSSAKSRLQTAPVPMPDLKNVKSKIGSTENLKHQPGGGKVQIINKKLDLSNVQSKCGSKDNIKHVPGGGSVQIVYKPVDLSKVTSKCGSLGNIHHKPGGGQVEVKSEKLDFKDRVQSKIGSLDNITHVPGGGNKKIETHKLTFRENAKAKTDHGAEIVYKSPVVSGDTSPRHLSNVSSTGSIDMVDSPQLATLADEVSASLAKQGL

SMILES	Potency	activity change, negative = inhibition
CC1=C(O)C(=O)[C@H]2O[C@@H]2C1=O	inconclusive: 39.8 µM [decreasing]	–
CCCCCCCC(=O)Cl	inactive	–
CCNC(=O)[C@@H]1O[C@@H](n2cnc3c(N)ncnc32)[C@H](O)[C@H]1O	inconclusive: 39.8 µM [decreasing] [filaments grown with octadecylsulfate alongside compound]	–
Clc1cccc(SC2CCNCC2)n1	inconclusive: 39.8 µM [decreasing]	–
C(=C/c1ccccc1)/CN1CCN(CCOC(c2ccccc2)c2ccccc2)CC1	inconclusive: 3.98 µM [decreasing]	–
NP(N)(=O)NC(=O)c1ccc(F)cc1	inconclusive: 39.8 µM [decreasing]	–
Oc1cc2c(cc1O)[C@H]1c3ccccc3CN[C@H]1CC2	inconclusive: 39.8 µM [decreasing]	–
CN1CC[C@@]2(c3cccc(O)c3)Cc3nc4ccccc4cc3C[C@H]2C1	inconclusive: 39.8 µM [decreasing] [filaments grown with octadecylsulfate alongside compound]	–
COc1cc2c(cc1OC)[C@@]13CCN4C=C5CCO[C@H]6CC(=O)N2[C@@H]1[C@@H]6[C@H]5C[C@H]43	–	inactive: 5.2% [at 11.4 µM]
CS(=O)(=O)Nc1ccc(Cc2noc(-c3ccc4[nH]cc(CCN)c4c3)n2)cc1	inconclusive: 39.8 µM [decreasing]	–
C[C@]12N[C@@H](Cc3ccccc31)c1ccccc12	inconclusive: 39.8 µM [decreasing]	–
CC(C)(C)C(O)C(Oc1ccc(Cl)cc1)n1cncn1 (stereo not drawn)	inconclusive: 39.8 µM [decreasing]	–
CCCN(CCC)C1Cc2cc(OC)c(OC)cc2C1	inconclusive: 39.8 µM [decreasing]	–
CCC(=NC1CCN(Cc2ccccc2)CC1)c1c(O)[nH]c(=O)[nH]c1=O	inactive	–
C/C=C(\C)C(=O)O[C@@H]1C(C)=C2[C@H]([C@@H]1OC(=O)CCCCCCC)[C@@](C)(OC(C)=O)C[C@@H](OC(=O)CCC)[C@@]1(O)[C@H]2OC(=O)[C@]1(C)O	inactive	–
O=C(Oc1ccccc1)N1CCC[C@@]2(CCN(Cc3ccccc3)C2)C1	inactive	–
CN1CC[C@@H]2CN3CCc4cccc(c43)[C@H]2C1	inactive	–
CC[C@@H]1CN2CC[C@@H]1C[C@H]2[C@@H](O)c1ccnc2ccc(OC)cc12	inconclusive: 39.8 µM [decreasing]	–
CC(=O)[O-].CC(=O)[O-].CC(=O)[O-].[Cr+3]	active: 12.6 µM [filaments grown with octadecylsulfate alongside compound]	–
COc1cc2c(cc1O)C[C@H]1c3c(cc(OC)c(O)c3-2)CCN1C	active: 39.8 µM [filaments grown with octadecylsulfate alongside compound]	–
CSC([N-]/N=C/c1cccc(C)n1)=[S]=[Cu].CS[C@H]([S-])[N-]/N=C/c1cccc(C)n1	inconclusive: 6.31 µM [decreasing]	–

SMILES	Potency	activity change, negative = inhibition
N[C@H](Cc1o[nH]c(=O)c1Cl)C(=O)O	inconclusive: 39.8 µM [decreasing] [filaments grown with octadecylsulfate alongside compound]	–
C#CCN[C@@H](C)Cc1ccccc1	inactive	–
O=[As](O)(O)c1ccc2nc3cc([As](=O)(O)O)ccc3nc2c1	inconclusive: 3.98 µM [decreasing] [filaments grown with octadecylsulfate alongside compound]	–
S=C=Nc1cccc(C2(N3CCCCC3)CCCCC2)c1	inconclusive: 39.8 µM [decreasing]	–
CCOC(=O)N(CC)c1ccc(C(O)(C(=O)OCC)C(F)(F)F)cc1 (stereo not drawn)	inactive	–
COc1ccc2c(c1O)-c1c(OC)c(OC)cc3c1[C@H](C2)N(C)CC3	inconclusive: 39.8 µM [decreasing]	–
CC(C)(C)[C@@]1(O)C[C@@H]2OC(=O)C[C@@]23C(=O)O[C@H]2OC(=O)[C@@H](O)[C@]231	inconclusive: 31.6 µM [decreasing] [filaments grown with octadecylsulfate alongside compound]	–
O=C(Cc1ccc(Cl)c(Cl)c1)N1CCCC[C@H]1CN1CCCC1	inconclusive: 39.8 µM [decreasing]	–
CC(C)(C)c1o[nH]c(=O)c1C[C@H](N)C(=O)O	inconclusive: 39.8 µM [decreasing]	–
C=C(C)[C@H]1CN[C@H](C(=O)O)[C@@H]1CC(=O)O	inconclusive: 39.8 µM [decreasing] [filaments grown with octadecylsulfate alongside compound]	–
Clc1cncc(N2CCNCC2)n1	inconclusive: 39.8 µM [decreasing] [filaments grown with octadecylsulfate alongside compound]	–
COc1cc2c(cc1OC)-c1c(O)c(OC)cc3c1[C@@H](C2)N(C)CC3	active: 31.6 µM [filaments grown with octadecylsulfate alongside compound]	–
CC(C)(O)[C@H]1[C@H]2OC(=O)[C@@H]1[C@]1(O)C[C@H]3O[C@]34C(=O)O[C@H]2[C@]14C	inconclusive: 39.8 µM [decreasing] [filaments grown with octadecylsulfate alongside compound]	–
Cc1cc(C)cc(C(=O)OC2C[C@H]3CC[C@@H](C2)N3C)c1 (stereo partly drawn)	inconclusive: 31.6 µM [decreasing]	–
O=c1cccc2n1CC1CNC[C@H]2C1	inconclusive: 39.8 µM [decreasing]	–
O[C@@H]1[C@H](O)[C@H]2[C@@H](O)CCN2C[C@@H]1O	inconclusive: 39.8 µM [decreasing] [filaments grown with octadecylsulfate alongside compound]	–
NC[C@H](CC(=O)O)c1ccc(Cl)cc1	inconclusive: 39.8 µM [decreasing]	–
O=C1/C(=C\c2ccccc2)C[C@@]2(O)[C@H]3Cc4ccc(O)c5c4[C@@]2(CCN3CC2CC2)[C@@H]1O5	inconclusive: 39.8 µM [decreasing]	–
CCCCCC[C@H]1C(=O)O[C@@H](C)[C@H](NC(=O)c2cccc(NC=O)c2O)C(=O)O[C@@H](C)[C@@H]1OC(=O)CC(C)C	inconclusive: 39.8 µM [decreasing] [filaments grown with octadecylsulfate alongside compound]	–
O=C(O)C1=CCCN(CCOC(c2ccc(C(F)(F)F)cc2)c2ccc(C(F)(F)F)cc2)C1	inconclusive: 39.8 µM [decreasing]	–
C[C@@]12CC[C@H]3[C@H](CCC4=CC(=O)CC[C@H]43)[C@H]1CC[C@H]2OC1(O)C(=O)c2ccccc2C1=O	–	inactive: 2.2% [at 11.4 µM]

SMILES	Potency	activity change, negative = inhibition
N#Cc1ccccc1Cn1cc(C(=O)c2ccco2)c2ccccc21	inactive	–
CN(C(=O)Cc1ccc(Cl)c(Cl)c1)[C@@H](CN1CCCC1)c1cccc(OCC(=O)O)c1	inconclusive: 39.8 µM [decreasing]	–
NNCc1cccc(O)c1	inactive	–
C[C@H](N)Cc1c[nH]c2ccc(O)cc12	inconclusive: 39.8 µM [decreasing]	–
C=CCN1CC[C@]23c4c5ccc(O)c4O[C@@H]2C(=O)CC[C@]3(O)[C@H]1C5	inconclusive: 39.8 µM [decreasing]	–
CN1CCc2cc3c(cc2[C@@H]1[C@H]1OC(=O)c2c1ccc1c2OCO1)OCO3	inconclusive: 39.8 µM [decreasing]	–
CCCCCCC(C)(C)c1ccc([C@@H]2C[C@H](O)CC[C@@H]2CCCO)c(O)c1	inconclusive: 39.8 µM [decreasing]	–
NCC1(CC(=O)O)CCCCC1	inconclusive: 39.8 µM [decreasing]	–
O=C(Nc1cccnc1)c1c(O)c2c(n(Cc3ccccc3)c1=O)CCCC2	inactive	–
O=C(CCCN1CCC2(CC1)C(=O)NCN2c1ccccc1)c1ccc(F)cc1	inconclusive: 39.8 µM [decreasing]	–
Nc1ccc(Cl)cc1N	active: 2.51 µM	–
C=CCN1CC[C@@]23c4c5ccc(O)c4O[C@H]2/C(=N\N=C2/CC[C@@]4(O)[C@H]6Cc7ccc(O)c8c7[C@@]4(CCN6CC=C)[C@@H]2O8)CC[C@]3(O)[C@@H]1C5	inconclusive: 39.8 µM [decreasing]	–
Cc1cc(N=Nc2ccccc2C)ccc1N	active: 7.94 µM	–
COC1(CS(=O)c2ccccc2)CCN(CCc2c[nH]c3ccc(F)cc23)CC1 (stereo not drawn)	inconclusive: 39.8 µM [decreasing]	–
Cc1ncsc1CCCl	inconclusive: 39.8 µM [decreasing]	–
Cc1ccccc1-n1c(O)c(C=Nc2ccc(N(C)C)cc2)c(=O)[nH]c1=O	inconclusive: 39.8 µM [decreasing]	–
CCOC(=O)c1cncn1[C@H](C)c1ccccc1	inconclusive: 39.8 µM [decreasing]	–
Cc1noc(C)c1C(=O)N1CCC2(CCCN(CC(C)C)C2)CC1	inactive	–
C/C(=C\C=C/[C@@H](C)C(=O)O)[C@H]1CN[C@H](C(=O)O)[C@@H]1CC(=O)O	inconclusive: 39.8 µM [decreasing] [filaments grown with octadecylsulfate alongside compound]	–
COc1ccc2c(c1OC)C(=O)O[C@H]2[C@H]1c2cc3c(cc2CCN1C)OCO3	inconclusive: 39.8 µM [decreasing] [filaments grown with octadecylsulfate alongside compound]	–
c1ccc(CN2CC[C@@]3(CCCNC3)C2)cc1	inactive	–
